A word on the % Inhibition: it is the drop in the measured response relative to a control, in per cent.

The source of these data is ChEMBL document CHEMBL4888484, “Replenishing the malaria drug discovery pipeline: Screening and hit evaluation of the MMV Hit Generation Library 1 (HGL1) against asexual blood stage Plasmodium falciparum ,using a nano luciferase reporter read-out” (2022).

Structures are written as SMILES. The campaign covered roughly 150,000 compounds. About 540 (0.36%) showed an effect of 50% or more. This is one part of the list.

The subject of the assay is Plasmodium falciparum. Description: Primary screen in NF54 nanoGlo assay, in single point, at 2uM, 72h; a lower Z score goes with more inhibition. The assay is classed as functional, Erythrocyte. To be noted: timepoint 72 hour.
For the molecule `COc1ccccc1[C@H]1CCN(c2cc3nncn3c(C)n2)C1`, the “% Inhibition” value is -1% and the Z score was 0.18.
Taken in the same sequence, the figures for `CO[C@H]1COC[C@@H]1NC(=O)c1ccc(CO)cc1` were -13% and 1.51.
The matching figures for `Cc1csc(C2CN(C(=O)NC3CCc4ccccc43)CCO2)n1` (stereo not given): -9% and 1.4.
Taken in the same sequence, the figures for `COc1ccc(CNC(=O)CCN2C=Cc3cc(OC)c(OC)cc3CC2=O)cc1` were 4% and -0.53.
For the molecule `CN(CC(N)=O)c1ccnc(Cc2ccccc2)n1`, the “% Inhibition” value was -12% and the Z score is reported as 1.57.
For the molecule `CCCc1cc(C(=O)N2C[C@@H]3CC[C@H]2CN(C(C)=O)C3)n(C)n1`, the “% Inhibition” value stood at 3% and the Z score is given as -0.61.
On to `CN(C(=O)C(=Cc1ccc(Cl)cc1)c1ccc(F)cc1)[C@H]1CCS(=O)(=O)C1`, for which the “% Inhibition” value is on record as -3% and the Z score is 0.48.
Taken in the same sequence, the figures for `COC(=O)COCC(=O)N1CCC(C)C(OC)C1` (stereo not given) were -3% and 0.33.
As for `CC(N1C(=O)[C@H]2CCCCN2C1=O)C(C)(C)C` (stereo not given in full), the “% Inhibition” value is -5% and the Z score was determined as 0.62.
Turning to `CCc1nccn1C[C@H]1CCCN1C(=O)Cc1c(Cl)cccc1Cl`, the “% Inhibition” value was 4% and the Z score is on record as -0.54.
Taken in the same sequence, the figures for `COCCN/C(Cc1ccc(Cl)cc1)=N\NC(=O)OC(C)(C)C` were -3% and 0.33.
Regarding `Cc1ccc(S(=O)(=O)NCC(=O)NCCN2CCNC2=O)c(C)c1`, the “% Inhibition” value is -11% and the Z score is listed as 2.03.
Taken in the same sequence, the figures for `CC1CC1C(=O)NC1CCCC(NC(=O)OC(C)(C)C)C1` (stereo not given) were -5% and 0.51.
Taken in the same sequence, the figures for `Cc1ncnc(N2CCC(N3CCNC(=O)CC3)CC2)c1C` were 4% and -0.65.
Taken in the same sequence, the figures for `C[C@H](NCc1nc(N(C)C)no1)c1ccc(OCC2CC2)c(F)c1` were -5% and 0.61.
Turning to `Cc1cc(C(=O)N[C@H](c2ncccc2C)C2CC2)on1`, the “% Inhibition” value stood at 13% and the Z score is -1.86.
On to `COc1cc(C)cnc1C(=O)NCC1CCN(C2CC2)CC1`, for which the “% Inhibition” value is on record as -5% and the Z score is 0.47.
Taken in the same sequence, the figures for `CCCCS(=O)(=O)N1CCc2nn(CCOC)c(=O)n2CC1` were -5% and 0.68.
`O=C(CC1CCCC1)NCCn1ccnc1-c1ccccn1`: the “% Inhibition” value amounted to 13% and the Z score is recorded as -1.67.
With `Cc1ccc(N(C)S(=O)(=O)c2c(C(=O)N3CCOCC3)c(C)n(C)c2C)cc1`, the “% Inhibition” value was -15% and the Z score came out at 2.94.
The matching figures for `Cc1cc(-c2cccc(C(=O)NCC3(N4CCCC4)CCCCC3)c2)ccn1`: -11% and 2.07.
Taken in the same sequence, the figures for `Nc1[nH]nc(-c2ccccn2)c1-c1ccc2c(c1)OCO2` were 26% and -2.97.
The matching figures for `Cc1ccc(NC(=O)C2(C)COC2)c(F)c1`: 5% and -0.75.
In the case of `CCn1ccc(C(=O)N2CCCN(Cc3c(C)noc3C)CC2)n1`, the “% Inhibition” value was -3% and the Z score turned out to be 0.35.
As for `Cc1c(CN2CCC(CCC(=O)N3CCOCC3)CC2)[nH]c2ccc(Cl)cc12`, the “% Inhibition” value was found to be 5% and the Z score is recorded as -0.58.
As for `O=c1cnnc(NCc2ccccc2)n1Cc1ccccc1`, the “% Inhibition” value is 5% and the Z score is -0.65.
In the case of `C#CCN(CC#CC)CC(=O)N[C@](C)(C#N)C1CC1`, the “% Inhibition” value is 2% and the Z score is -0.23.
The matching figures for `O=S(=O)(c1cccc(NCc2ccccc2)c1)N1CCC(O)CC1`: 2% and -0.26.
The matching figures for `COc1cc(-c2cc(C(=O)N3CCNC(=O)C3)n[nH]2)cc(OC)c1OC`: -6% and 0.68.
The matching figures for `CC1CCN(C[C@@H](O)Cn2nnc(-c3ccsc3)n2)CC1`: -11% and 2.04.
Take `COc1ccc(CN2CCn3nc(CNc4cnccn4)cc3C2)c(OC)c1`: the “% Inhibition” value was -4% and the Z score amounted to 0.39.
Taken in the same sequence, the figures for `Cc1nn(C)c(N2CCN(c3ncc(Br)cn3)CC2)c1N` were 5% and -0.95.
Taken in the same sequence, the figures for `O=C(c1cccnc1)N1CCC(NC(=O)N2CCCC2C2CCC2)C1` (stereo not given) were -11% and 1.03.
Consider `CC(Cc1ccccc1Br)NC(=O)N1CCC[C@H]1CO` (stereo not given in full), for which the “% Inhibition” value is -15% and the Z score came to 1.38.
The matching figures for `O=C(Cc1ccc(S(=O)(=O)Nc2ccc(Cl)cc2)s1)N1CCCC1`: -7% and 1.33.
The matching figures for `COc1ccc(CNC(=O)N2CCC[C@H](Oc3cnccn3)C2)cc1OC`: -3% and 0.47.
Taken in the same sequence, the figures for `C[C@@H](CCn1cccn1)n1cnc2cnccc2c1=O` were -10% and 1.95.
With `CN(CCCc1cc(-c2ccccc2)n[nH]1)C(=O)C1CC1C(=O)O` (stereo not given), the “% Inhibition” value is reported as -21% and the Z score was 3.04.
The matching figures for `Cc1cnn(C2CN(c3cc(C)nc4ncnn34)C2)c1`: 0% and -0.06.
Taken in the same sequence, the figures for `CN(C)CCOC1CCN(Cc2ccc3cc(Cl)ccc3n2)CC1` were -3% and 0.38.
Consider `CCn1ncc2ccc(N[C@@H](C)c3cn(C4COC4)nn3)cc21`, for which the “% Inhibition” value is given as -4% and the Z score is 0.87.
With `CC(C)(C)OC(=O)N1C[C@H]2CCN(C(=O)C3(C)CCC3)CC[C@H]2C1`, the “% Inhibition” value was -9% and the Z score is listed as 1.81.
Taken in the same sequence, the figures for `N#Cc1ccc(CN2CCN3C(=O)NC[C@H]3C2)cc1` were -9% and 1.48.
With `CCCCN1CCCC[C@H]1C(=O)NCc1ccc(N2CCCC2=O)cc1`, the “% Inhibition” value was found to be 4% and the Z score was -0.51.
`O=C(Nc1nc2ccccc2s1)C12CCC(CC1)C2`: the “% Inhibition” value is on record as -34% and the Z score was found to be 4.02.
Taken in the same sequence, the figures for `Cc1cccc(Cn2c(C(=O)Nc3ccccc3)cc3cc(NC(=O)C4CCC4)ccc32)c1` were 13% and -2.41.
The matching figures for `CC(=O)N[C@H]1[C@H](c2ccccc2)N(CCC(C)C)CC[C@@]1(C)O`: -3% and 0.39.
As for `COc1cc(C(=O)Nc2nnc(-c3cccc4ccccc34)[nH]2)on1`, the “% Inhibition” value is 0% and the Z score came out at 0.03.
Taken in the same sequence, the figures for `CN1CCN(C(=O)CN2C[C@@H](c3ccccc3Cl)OCC2(C)C)CC1` were -8% and 0.93.
As for `O=C(c1cc(C2CC2)oc1C1CC1)N1CCOc2ccc(O)cc2C1`, the “% Inhibition” value was 3% and the Z score is -0.52.
The matching figures for `COc1ccc(CCN2Cc3cc(NC(=O)OCc4ccccc4)ccc3O[C@@H](C)C2=O)cc1`: -4% and 0.46.
The matching figures for `O=S(=O)(c1ccccc1)n1nc(NCc2ccc(Br)cc2)nc1NCc1ccc(Br)cc1`: -1% and 0.11.
The matching figures for `CCO[C@@H](C)C(=O)Nc1ccnnc1C`: 5% and -0.72.
Take `CCN(C[C@H]1CCN(c2cc(=O)n(C)c(=O)n2C)C1)CC(F)(F)F`: the “% Inhibition” value was -24% and the Z score is 3.2.
The matching figures for `COc1ccccc1[C@H]1Oc2ccccc2-n2c(-c3ccc(C)cc3)c3c(=O)n(C)c(=O)n(C)c3c21`: 2% and -0.34.
